The text below walks through data of paper PMC4336329 (PLoS ONE, 2015).

Hit rate of the full screen: of about 310,000 compounds, about 2,200 (0.71%) showed an effect of 50% or more. Effects have a minus sign here. The list shows a part of the results.

Chain of human ether-à-go-go-related gene (hERG) potassium channel (Q12809 whole entry, looked up): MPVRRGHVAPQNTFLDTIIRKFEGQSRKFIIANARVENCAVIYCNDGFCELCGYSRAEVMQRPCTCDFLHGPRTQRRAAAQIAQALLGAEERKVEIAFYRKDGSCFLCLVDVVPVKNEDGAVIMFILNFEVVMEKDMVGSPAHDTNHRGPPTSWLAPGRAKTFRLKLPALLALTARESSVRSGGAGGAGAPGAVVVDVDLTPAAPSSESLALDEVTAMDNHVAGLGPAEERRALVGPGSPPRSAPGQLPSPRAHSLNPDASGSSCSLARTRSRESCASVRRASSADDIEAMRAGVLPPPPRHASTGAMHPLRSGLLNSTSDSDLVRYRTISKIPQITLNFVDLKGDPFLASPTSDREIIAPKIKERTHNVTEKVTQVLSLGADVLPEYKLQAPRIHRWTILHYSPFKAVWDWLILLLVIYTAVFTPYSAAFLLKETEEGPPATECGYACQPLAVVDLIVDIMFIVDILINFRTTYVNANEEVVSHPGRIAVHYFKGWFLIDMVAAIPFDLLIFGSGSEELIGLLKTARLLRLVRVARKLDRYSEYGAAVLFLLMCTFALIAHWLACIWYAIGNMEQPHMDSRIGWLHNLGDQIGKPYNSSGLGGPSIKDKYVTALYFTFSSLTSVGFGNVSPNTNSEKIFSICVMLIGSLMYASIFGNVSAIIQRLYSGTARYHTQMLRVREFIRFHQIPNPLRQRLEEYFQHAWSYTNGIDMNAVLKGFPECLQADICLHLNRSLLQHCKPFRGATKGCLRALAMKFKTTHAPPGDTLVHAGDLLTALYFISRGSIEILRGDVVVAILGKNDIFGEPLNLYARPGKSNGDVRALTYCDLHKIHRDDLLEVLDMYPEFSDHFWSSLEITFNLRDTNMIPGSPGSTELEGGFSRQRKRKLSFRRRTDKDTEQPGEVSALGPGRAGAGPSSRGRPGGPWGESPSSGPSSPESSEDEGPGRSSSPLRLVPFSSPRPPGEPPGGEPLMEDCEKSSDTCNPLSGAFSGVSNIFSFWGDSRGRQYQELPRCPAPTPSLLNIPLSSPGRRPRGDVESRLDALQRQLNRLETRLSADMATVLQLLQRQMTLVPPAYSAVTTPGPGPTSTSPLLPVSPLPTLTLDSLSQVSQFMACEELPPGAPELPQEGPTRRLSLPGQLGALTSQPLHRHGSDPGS

The test has as its target human ether-à-go-go-related gene (hERG) potassium channel (human, UniProt Q12809). The test can be described thus: primary screen, population patch clamp on CHO cells stably expressing hERG.
As to `CCC(=O)c1ccc(N2CCN(S(=O)(=O)c3ccccc3)CC2)c(F)c1`, the “hERG current change (%, negative = inhibition) at 1uM” value is 9.4%.
Turning to `COCc1c(C(=O)N2CCN(c3ccc(C(F)(F)F)cn3)CC2)oc2ccccc12`, the “hERG current change (%, negative = inhibition) at 1uM” value turned out to be 13.8%.
The same measure for `Cc1nn(-c2ccc(Cl)cc2)c2sc(C(=O)N3CCN(c4ccccn4)CC3)cc12`: 9.33%.
The same measure for `O=C(CCc1nnc(Cc2c[nH]c3ccccc23)o1)NC(C1CC1)C1CC1`: 16.4%; for `NC(=O)CS(=O)(=O)c1nc2ccccc2n1Cc1ccccn1`: 13.1%; for `C=CC[n+]1c(-c2ccc(OCC)cc2)csc1NNC(=O)Nc1ccccc1.[Br-]`: 17.8%.
Then `CCC(C(=O)NCc1ccco1)N(C(=O)CNS(=O)(=O)c1ccccc1)c1ccc(OC)cc1` (stereo not shown), with 1.95%.
As to `CC(=O)Nc1ccc(-c2csc(NC(=O)C3=COCCO3)n2)cc1`, the “hERG current change (%, negative = inhibition) at 1uM” value came out at 3.41%.
Consider `Fc1ccc(COc2ccccc2-c2ccnc3ncnn23)cc1`, for which the “hERG current change (%, negative = inhibition) at 1uM” value is listed as 0.0386%.
The same measure for `CC(=O)N1CCc2cc(S(=O)(=O)NCCCOC(C)C)ccc21`: 15.6%; for `CC(=O)c1cn(CC(=O)NCc2ccc3c(c2)OCO3)c2ccccc12`: 5.95%.
Regarding `CC1Sc2ccc(S(=O)(=O)CCC(=O)NC(C)c3ccccc3)cc2NC1=O` (stereo not shown), the “hERG current change (%, negative = inhibition) at 1uM” value is 14.7%.
Then `CCC(=O)Nc1nc2ccccc2n1Cc1ccc(C)cc1`, with 3.76%; and `Cl.O=C(NCCCN1CCOCC1)c1cccnc1`, with 12.3%.
The same measure for `COc1ccc(N2CCN(C(CNC(=O)COc3ccccc3)c3ccco3)CC2)cc1` (stereo not shown): -10.8%; for `COc1ccc(-c2noc(CNC(=O)CCN3C(=O)[C@H]4CC=CC[C@H]4C3=O)n2)cc1`: 11.5%; for `O=C(Cc1n[nH]c(=O)c2ccccc12)Nc1ccc(-c2nnc3n2CCCCC3)cc1`: -5.12%.
As for `COc1ccc(S(N)(=O)=O)cc1C(=O)OCCCOC(=O)c1cc(S(N)(=O)=O)ccc1OC`, the “hERG current change (%, negative = inhibition) at 1uM” value turned out to be 17.1%.
On to `O=S(=O)(NCC1CCCO1)c1ccc(Cl)c(C(F)(F)F)c1` (stereo not shown), for which the “hERG current change (%, negative = inhibition) at 1uM” value is listed as -0.915%.
For `CCC(C(=O)OC)n1cnc2scc(-c3ccc(C)cc3)c2c1=O` (stereo not shown), the “hERG current change (%, negative = inhibition) at 1uM” value was 9.18%.
Then `Cc1ccc(OCC(=O)N2CCN(C(=O)CCC3CCCC3)CC2)cc1`, with -29.1%.
The same measure for `O=C(c1ccco1)N1CCN(c2ccccc2F)CC1`: 5.1%; for `COc1cccc(CN2CCCC(N3CCc4ccccc4C3)C2)c1O` (stereo not shown): 9.35%.
Then `O=C(O)/C(=C\c1cccc(O)c1)c1ccc(S(=O)(=O)N2CCCC2)s1`, with -9.68%; and `CC(Sc1nc(N)cc(=O)[nH]1)C(=O)NNC(=O)c1cccc(Cl)c1` (stereo not shown), with 4.15%.
Regarding `O=C(COc1ccc2ccccc2c1)NNC(=O)Nc1ccccc1F`, the “hERG current change (%, negative = inhibition) at 1uM” value is on record as 13.2%.
The same measure for `CC(C)c1ccc(Nc2c([N+](=O)[O-])c(=O)n(C)c3ccccc23)cc1`: 9.15%; for `O=C(NC1CC1)C1CCN(C2CCN(Cc3ccccc3C(F)(F)F)CC2)CC1`: -7.23%.
Then `O=c1cnc(-c2ccc(Cl)cc2)cn1O`, with 24.2%.
On to `O=C(Nc1ccc2oc(-c3ccncc3)nc2c1)c1ccc([N+](=O)[O-])o1`, for which the “hERG current change (%, negative = inhibition) at 1uM” value is 3.38%.
The same measure for `CCn1ncc(NC(=S)Nc2ccc3c(c2)OCO3)c1C(N)=O`: 27%; for `O=c1c2ccccc2oc2nc(-c3cccs3)n(CCc3ccccc3)c(=O)c12`: 2.24%.
The same measure for `Cc1cc(C(=O)CSc2nc3ccccc3n2CCC#N)c(C)n1Cc1cccs1`: -3.7%; for `CC1CCCC(NC(=O)COC(=O)Cc2ccsc2)C1C` (stereo not shown): -7.66%.
The same measure for `CCOc1ccc(C(=O)Nc2ccccc2C(=O)O)cc1`: 6.67%; for `COc1ccc2oc(C(=O)OCC(=O)NCC3CCCO3)c(C)c2c1` (stereo not shown): 14.9%; for `Cc1cc(N)n(-c2ccc(S(N)(=O)=O)cc2[N+](=O)[O-])n1.O=C(O)C(F)(F)F`: 22.6%.
On to `CC(C)Cc1nc(N2CCN(C(=O)c3ccco3)CC2)c(C#N)c2c1CCC2`, for which the “hERG current change (%, negative = inhibition) at 1uM” value turned out to be 4.55%.
Consider `COc1ccc(C(=O)Nc2ccc([N+](=O)[O-])cn2)cc1OC`, for which the “hERG current change (%, negative = inhibition) at 1uM” value was found to be 5.65%.
On to `COc1ccc(/C(O)=C2\C(=O)C(=O)N(c3cc(C)on3)C2c2cccc(OC)c2OC)cc1C` (stereo not shown), for which the “hERG current change (%, negative = inhibition) at 1uM” value turned out to be 5.09%.
The same measure for `COC(=O)c1ccc(OCC(O)CN2CCN(CC(O)COc3ccc(C(=O)OC)cc3)CC2)cc1` (stereo not shown): -25.6%; for `CCN(CC)S(=O)(=O)c1ccc2c(c1)c(=O)c(C(=O)N1CCN(c3ccccn3)CC1)cn2C`: 1.05%; for `COc1ccc(CNC(=O)COc2cc3c(c4oc(=O)cc(C)c24)CCC(C)(C)O3)cc1OC`: 11.5%.
